± gives the standard deviation of the averaged measurements. Some of the results follow.
system: PfAP2-EXP AP2 domain (GST-tagged); assay: gcPBM binding intensity (ln(normalized median fluorescence intensity)); higher = stronger DNA binding
Procedure, shortened: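 GST-tagged P. falciparum DNA-binding domains produced in E. coli were incubated for 1 h on an Agilent 4 × 180k array of primer-extended double-stranded 36-bp intergenic genomic probes with negative controls. Binding intensity is the highest Masliner-normalised natural-log median intensity across replicate spots of either probe orientation, with bound protein detected by Alexa488 anti-GST antibody at 488 nm.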

Sequence	gcPBM binding intensity (ln)
TTCAAAAAAGGAAAGTTGCACTTGATACGCTTATTA [GTGCAC_site9411]	8.58 ± 0.27
ATAAGTAATATAATATGTACATATATATATATATAT [XGTACX_site3818]	10.2 ± 0.37
AAGAAATAAATACATACACACATATATATATATATA [CACACA_site3362]	10 ± 0.34
GGAAATTTCAATATTTGTACATATATATATATATAT [XGTACX_site3222]	10.1 ± 0.38
ATGCAAAATAAAGAAGCACACAAAAATGAAATATAT [CACACA_site9217]	9.06 ± 0.4
AGAATAATTTTATCGGTACACACTGTATGCATAATA [CACACA_site374]	8.79 ± 0.47
TATATATTGTTATAATGTACATAATATTTTATCTGC [XGTACX_site4983]	8.41 ± 0.4
ATATTATTTTATGCTACACACATTTTCTCTTATAAA [CACACA_site943]	8.86 ± 0.33
AATATATTTTAGAGTTTTATATATTTTATGCATATA [GTGCAC_negctrl_site710]	8.4 ± 0.44
TTCAAACATATTAATTGTACATACAACAAAACCATG [XGTACX_site5149]	8.79 ± 0.28
TGGAAAATAAAGTACGCACACAAAAATTCTCTTCAT [CACACA_site2327]	8.71 ± 0.56
ATATGTATTTATGTATTTATGTATTTTTATATTTTT [CACACA_negctrl_site595]	8.52 ± 0.43
AAAAAAAAAAAACACACACACACATTCAATATAAAA [CACACA_site40]	8.4 ± 0.58
TAAATGTTAAAATTCACACAAATATGTGCGGAATAT [CACACA_site5055]	8.52 ± 0.43
GGAATTTTTATTCGAAGTACTGTTGTGAGTAATAAA [XGTACX_site8599]	8.57 ± 0.4
ATATATAATATATACACACACATGTATATATAAATA [CACACA_site1968]	8.35 ± 0.4
ACCCATTTGATAATAATGCACACCACATATATTTAT [CACACA_site3061]	8.82 ± 0.16
TGCAAGGAACAACACACACACACATAAATGTATATA [CACACA_site8149]	8.56 ± 0.49
TTTGACTAAATTAAATATTAAAGTATGGATTATTCT [CACACA_negctrl_site833]	8.05 ± 0.55
AAGACCATATGAATAATGCACACGTTTTAAAATATT [CACACA_site2323]	8.78 ± 0.39
TTTCCATTTTCTCTATGTACATAAAAATGAGATAAA [XGTACX_site5689]	8.56 ± 0.28
CACACGCACGGACACACACACAAAAAAAAAAAGAAA [CACACA_site6378]	8.53 ± 0.17

Sequence	gcPBM binding intensity (ln)
GTTTGGTGGTGTTTTGGTACGTACGGGGGTGTATGT [XGTACX_site1211]	9.66 ± 0.2
ATATTTATGGAATATACACACATGTATAATTACATA [CACACA_site7045]	8.19 ± 0.25
AAATAAATCTTATGCACACAAATAATTAATGAAACA [CACACA_site5011]	8.62 ± 0.29
TCTTTGTACTTTCACATGTACACCCAAATGGAAATT [CACACA_negctrl_site1442]	8.82 ± 0.3
AGGACTAATATTTGAACACACATATAATAAATACAT [CACACA_site6068]	8.61 ± 0.45
TATATATATATATACACACACACAAAAAAAAAAAAA [CACACA_site1505]	10.2 ± 0.21
AGCATAAACAATTTTTGAAAAAATATACACTCATAG [CACACA_negctrl_site890]	8.55 ± 0.38
AAAATAACGAGTCAAACACACATATATATATATATA [CACACA_site2039]	10.1 ± 0.47
CTCAACATATACGTAACACACATATATATATATATA [CACACA_site3838]	10.2 ± 0.41
TCTACAAGGCTTGATCGTACAATTTGAATGTATTTG [XGTACX_site7698]	8.49 ± 0.57
AGATTATATATATGTATATATGTATATATTTATATA [CACACA_negctrl_site1797]	7.92 ± 0.3
TATGCAAGGAACCACACACACACACCCAAATGTATA [CACACA_site750]	8.55 ± 0.63
TATCTCTCTTTCTGCTGTACATAAAAATTATATAAT [XGTACX_site5961]	8.97 ± 0.41
AACATATTTTTAAATACACACACATAAAAAAAAAAA [CACACA_site8279]	8.59 ± 0.5
TATATATAATATACATGTACAAATGTATTTAAAAAT [XGTACX_site6090]	8.62 ± 0.36
TCATATTTGCCTTTTTATTTAGAACACAAAAAAAAA [CACACA_negctrl_site1152]	8.24 ± 0.38
CAAAAAAAGAAAGCTACACACATTTATGTGCTATAT [CACACA_site2777]	8.39 ± 0.3
AGAAAATACACGCATACACACACACCCACCCACATA [CACACA_site8115]	9.13 ± 0.33
ATTCGGATATATATCACACATAACTTTAATAATATA [CACACA_site5720]	8.43 ± 0.38
AATTAAAAATTCAAGTGTACTTTTATATTATTATAC [XGTACX_site4106]	8.34 ± 0.23
ATTATAATAGTTAAATGTACACACTAACTACATGGA [XGTACX_site6918]	8.58 ± 0.24

— the supplement of paper PMC11417369
